From the supplement of paper PMC11880418
Counter-ions that a name gives are not always drawn. The list shows a part of the results. The data scatter; read single values as rough.

What follows are molecules tested on SUM159 (assay: ALDHbr (CSC) cell proportion score relative to DMSO vehicle (ratio to DMSO); breast (SUM159) / gastric (MKN45) / pancreatic (PANC1) / colon cancer lines; ALDHbr cells have high ALDH activity and are rich in cancer stem cells (CSC); higher = more CSC (ALDHbr) cells remaining). Conditions: 10 µM; 72 h.
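Further: High-content imaging of ALDEFLUOR-stained cells with Hoechst-labelled nuclei in 384-well plates, triplicate wells, scored as Z-score against 0.1% DMSO vehicle, negative meaning fewer ALDHbr cells.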

Compound | ALDHbr
CCN(CC)CCOC(=O)C(c1ccccc1)C1CCCCC1 (stereo not drawn) [Drofenine hydrochloride] | 0.769
C#C[C@]1(O)CC[C@H]2[C@@H]3CCC4=CC(=O)CC[C@@H]4[C@H]3CC[C@@]21C [Norethindrone] | 1.02
CC1(C)NC(=O)N(c2ccc([N+](=O)[O-])c(C(F)(F)F)c2)C1=O [Nilutamide] | 1.03

What follows are molecules tested on T84 in the same assay as above. Conditions: 10 µM; 72 h.

Compound | ALDHbr
CC(C)(CO)C(O)C(=O)NCCCO (stereo not drawn) [Panthenol (D)] | 0.935
C=C1c2cccc(O)c2C(O)=C2C(=O)[C@]3(O)C(O)=C(C(N)=O)C(=O)[C@@H](N(C)C)[C@@H]3[C@@H](O)[C@H]12 [Methacycline hydrochloride] | 0.778
C[C@H]1NC(=O)NC1=O [Methylhydantoin-5-(D)] | 1.01
C=CC1=C(C(=O)O)N2C(=O)[C@@H](NC(=O)/C(=N\OCC(=O)O)c3csc(N)n3)[C@H]2SC1 [Cefixime] | 1.08
CN(C)CCc1c[nH]c2ccc(C[C@H]3COC(=O)N3)cc12 [Zolmitriptan] | 0.966
CC(C)CN(C[C@@H](O)[C@H](Cc1ccccc1)NC(=O)O[C@H]1CCOC1)S(=O)(=O)c1ccc(N)cc1 [Amprenavir] | 0.899
O=C(N/N=C/c1ccc([N+](=O)[O-])o1)c1ccc(O)cc1 [Nifuroxazide] | 0.00992
CC1=C(/C=C/C(C)=C/C=C/C(C)=C/C(=O)O)C(C)(C)CCC1 [Retinoic acid] | 0.589
CN(C)CCCN1c2ccccc2CCc2ccccc21 [Imipramine hydrochloride] | 0.86
CCCCOc1cc(C(=O)NCCN(CC)CC)c2ccccc2n1 [Dibucaine] | 0.834
CCCCCCCN(CC)CCCC(O)c1ccc(NS(C)(=O)=O)cc1 (stereo not drawn) [Ibutilide fumarate] | 0.774
CC(C)NCC(O)c1cc(O)cc(O)c1 (stereo not drawn) [Metaproterenol sulfate, orciprenaline sulfate] | 1.05
CCCC1C(=O)N2C(N(C)C)=Nc3ccc(C)cc3N2C1=O (stereo not drawn) [Azapropazone] | 0.76
N=C(N=C(N)N)N1CCOCC1 [Moroxidine hydrochloride] | 0.98
CC(C)NC[C@H](O)COc1cccc2ccccc12 [(S)-propranolol hydrochloride] | 1.03
Cc1cccc(CN2CCN(C(c3ccccc3)c3ccc(Cl)cc3)CC2)c1 (stereo not drawn) [Meclozine dihydrochloride] | 0.934
CCN(CC)CCNC(C(=O)OCCC(C)C)c1ccccc1 (stereo not drawn) [Camylofine chlorhydrate] | 0.891
C[C@]12C=CC(=O)C=C1CC[C@H]1[C@@H]3C[C@@H](O)[C@](O)(C(=O)CO)[C@@]3(C)C[C@H](O)[C@@]12F [Triamcinolone] | 0.801
OC(CCCN1CCCCC1)(c1ccccc1)c1ccccc1 [Diphenidol hydrochloride] | 1.06
CCN(CC)C(=S)SSC(=S)N(CC)CC [Disulfiram] | 0.828
CC(=O)OCC1=C(C(=O)O)N2C(=O)[C@@H](NC(=O)Cc3cccs3)[C@H]2SC1 [Cephalothin sodium salt] | 0.941
CN(C)CCOC(c1ccccc1)c1ccccc1.Cn1c(=O)c2[nH]c(Cl)nc2n(C)c1=O [Dimenhydrinate] | 1.04
CN(N=O)C(=O)N[C@H]1C(O)O[C@H](CO)[C@@H](O)[C@@H]1O (mixture of isomers) [Streptozotocin] | 0.863
CCCCCN(C)CCC(O)(P(=O)(O)O)P(=O)(O)O [Ibandronate sodium] | 0.925
CN(CCCN1c2ccccc2CCc2ccccc21)CC(=O)c1ccc(Cl)cc1 [Lofepramine] | 0.773
CN(C)CCC[C@@]1(c2ccc(F)cc2)OCc2cc(C#N)ccc21 [Escitalopram oxalate] | 1.12
Cc1cnc(C(=O)NCCc2ccc(S(=O)(=O)NC(=O)NC3CCCCC3)cc2)cn1 [Glipizide] | 1.07
Cc1ncc(CO)c(CO)c1O [Pyridoxine hydrochloride] | 0.98
CC(=O)[C@H]1CC[C@H]2[C@@H]3C=CC4=CC(=O)CC[C@@]4(C)[C@@H]3CC[C@]12C [Dydrogesterone] | 0.921
CO[C@H]1C[C@H](O[C@H]2[C@H](C)[C@@H](O[C@@H]3O[C@H](C)C[C@H](N(C)C)[C@H]3OC(C)=O)[C@@H](C)C[C@@]3(CO3)C(=O)[C@H](C)[C@@H](OC(C)=O)[C@@H](C)[C@@H](C)OC(=O)[C@@H]2C)O[C@@H](C)[C@@H]1OC(C)=O [Troleandomycin] | 0.825
